# The supplement of paper PMC9135407
# Where “and” joins values, the source holds several entries; their conditions need not be identical. Equal entries are not always repeated. Structures can show the parent of a compound that is named as a salt. The whole screen tested about 5,800 compounds, of which about 620 (11%) showed activity.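 The calls were made as follows: active = score above a cut-off or among the top three wells of a plate; in these data no inactive exceeds 0.85.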 This is a selection; strong and weak results do not stand in their true shares.
# System: primary human hepatic stellate cells (donor 1)
# Assay: scaled lipid accumulation score (0 = DMSO-like, 1 = nortriptyline-like); higher = stronger HSC inactivation (lipid re-accumulation), active = hit call of the paper
# Settings: 48 h
# Procedure: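 Primary lipid accumulation screen in primary human hepatic stellate cell myofibroblasts (donor 1, passage 8) in 384-well plates. 100 nL of library compound was pin-transferred into 30 µL medium in duplicate, and cells were treated for 48 h. The 'Scaled' score combines distance from plate baseline, toxicity and reproducibility penalties, and is normalised to nortriptyline (positive) and DMSO (negative) controls on each plate. A hit is defined as scaled >0.85 or among the top 3 wells per plate.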
# [1] = library stock concentration: 10 mM
# [2] = library stock concentration: 1 mM
# [3] = library stock concentration: 3.33 mM
# [4] = library stock concentration: 400 uM
# [5] = library stock concentration: 2 mM
structure (smiles),measurement,setting,value
CC1=C(/C=C/C(C)=C/C=C/C(C)=C\C(=O)O)C(C)(C)CCC1 [13-cis-retinoic acid],scaled lipid accumulation score,[1],inactive: ≤ 0
CC1=C(/C=C/C(C)=C/C=C/C(C)=C\C(=O)O)C(C)(C)CCC1 [13-cis retinoic acid],scaled lipid accumulation score,[2],inactive: ≤ -0.003
CC1=C(/C=C/C(C)=C/C=C/C(C)=C\C(=O)O)C(C)(C)CCC1 [Isotretinoin],scaled lipid accumulation score,,inactive: ≤ 0
same,scaled lipid accumulation score,[3],inactive: ≤ 0
same,scaled lipid accumulation score,[1],inactive: 0.098 and inactive: 0.099
CC1=C(/C=C/C(C)=C/C=C/C(C)=C\C(=O)O)C(C)(C)CCC1 [Isotretinon],scaled lipid accumulation score,library stock concentration: 6.7 mM,inactive: 0.034
same,scaled lipid accumulation score,[1],inactive: ≤ 0
CC/C(=C(/CC)c1ccc(O)cc1)c1ccc(O)cc1 [Diethylstilbestrol],scaled lipid accumulation score,,inactive: ≤ 0
same,scaled lipid accumulation score,[2],inactive: ≤ 0
same,scaled lipid accumulation score,[3],inactive: ≤ 0
same,scaled lipid accumulation score,library stock concentration: 7.5 mM,inactive: ≤ 0 and inactive: ≤ -0.001
same,scaled lipid accumulation score,[1],inactive: ≤ 0
CC(C)(Sc1ccc(CCN(CCCCC2CCCCC2)C(=O)NC2CCCCC2)cc1)C(=O)O,scaled lipid accumulation score,[2],inactive: 0.019
same,scaled lipid accumulation score,[1],inactive: ≤ -0.07 and inactive: ≤ -0.006
NC1C=CC=C(C(=O)O)C1 (stereo not drawn) [Gabaculine hydrochloride],scaled lipid accumulation score,[1],inactive: ≤ 0
NS(=O)(=O)c1ccc(N=Nc2c(O)[nH]c3ccc(Br)cc23)cc1 [Cdk2 Inhibitor II],scaled lipid accumulation score,[3],inactive: ≤ 0
CCCCC[C@H](O)/C=C/[C@H]1C=CC(=O)[C@@H]1CCCCCCC(=O)OCC [Prostaglandin A1 ethyl ester],scaled lipid accumulation score,[2],inactive: ≤ 0
Cc1cc(-c2ccccc2)nnc1NCCN1CCOCC1 [Minaprine dihydrochloride],scaled lipid accumulation score,,inactive: 0.11
Cc1cc(-c2ccccc2)nnc1NCCN1CCOCC1 [Minaprine hydrochloride],scaled lipid accumulation score,library stock concentration: 5.4 mM,inactive: ≤ 0
same,scaled lipid accumulation score,[1],inactive: 0.161
NC(N)=Nc1nc(CSCC/C(N)=N/S(N)(=O)=O)cs1,scaled lipid accumulation score,[1],inactive: 0.012
NC(N)=Nc1nc(CSCC/C(N)=N/S(N)(=O)=O)cs1 [Famotidine],scaled lipid accumulation score,,inactive: ≤ 0
same,scaled lipid accumulation score,[3],inactive: ≤ 0
same,scaled lipid accumulation score,library stock concentration: 5.9 mM,inactive: ≤ -0.006 and inactive: ≤ 0
same,scaled lipid accumulation score,[1],inactive: ≤ 0 and inactive: ≤ -0.07
Nc1ccc(CCNc2ncnc3c2ncn3C2OC(CO)C(O)C2O)cc1 (stereo not drawn) [N6-2-(4-Aminophenyl)ethyladenosine],scaled lipid accumulation score,[1],inactive: 0.102
COc1ccc(-c2ccc3c(N4CCOCC4)nc(N4C[C@@H](C)O[C@@H](C)C4)nc3n2)cc1CO,scaled lipid accumulation score,[4],inactive: ≤ -0.005
same,scaled lipid accumulation score,[5],inactive: ≤ -0.005
same,scaled lipid accumulation score,[3],inactive: ≤ 0
same,scaled lipid accumulation score,[1],inactive: ≤ 0 and inactive: ≤ -0.005
Cn1cnc2cc3c(Nc4cccc(Br)c4)ncnc3cc21,scaled lipid accumulation score,[3],inactive: 0.044
C#C[C@]1(O)CC[C@H]2[C@@H]3CCC4=Cc5oncc5CC4(C)[C@H]3CCC21C (stereo partly drawn) [Danazol],scaled lipid accumulation score,[1],active: 0.915
CN(C)[C@@H]1C(O)=C(C(N)=O)C(=O)[C@@]2(O)C(O)=C3C(=O)c4c(O)cccc4[C@@](C)(O)[C@H]3[C@H](O)[C@@H]12 [Oxytetracycline dihydrate],scaled lipid accumulation score,,inactive: 0.056
CN(C)[C@@H]1C(O)=C(C(N)=O)C(=O)[C@@]2(O)C(O)=C3C(=O)c4c(O)cccc4[C@@](C)(O)[C@H]3[C@H](O)[C@@H]12 [Oxytetracycline],scaled lipid accumulation score,library stock concentration: 4 mM,inactive: 0.025
same,scaled lipid accumulation score,[1],inactive: ≤ 0
CN(C)[C@@H]1C(O)=C(C(N)=O)C(=O)[C@@]2(O)C(O)=C3C(=O)c4c(O)cccc4[C@@](C)(O)[C@H]3[C@H](O)[C@@H]12 [Oxytetracycline hydrochloride],scaled lipid accumulation score,[1],inactive: ≤ 0
COc1cc(OC)c(/C=C/S(=O)(=O)Cc2ccc(OC)c(NCC(=O)O)c2)c(OC)c1,scaled lipid accumulation score,library stock concentration: 80 uM,inactive: ≤ -0.016
same,scaled lipid accumulation score,[4],inactive: ≤ -0.016
same,scaled lipid accumulation score,[5],inactive: 0.096
same,scaled lipid accumulation score,[3],inactive: 0.068
same,scaled lipid accumulation score,[1],inactive: 0.138 and inactive: 0.063
OC(CN1CCN(c2cccc(Cl)c2)CC1)C(c1ccccc1)c1ccccc1 (stereo not drawn),scaled lipid accumulation score,[3],inactive: ≤ 0
same,scaled lipid accumulation score,[1],inactive: ≤ 0 and inactive: 0.084
O=c1[nH]c(=O)n([C@H]2C[C@H](O)[C@@H](CO)O2)cc1Br [5-Bromo-2'-deoxyuridine],scaled lipid accumulation score,[1],inactive: 0.299
CN(C)CCOc1ccc(/C(=C(/CCCl)c2ccccc2)c2ccccc2)cc1.O=C(O)CC(O)(CC(=O)O)C(=O)O,scaled lipid accumulation score,[1],active: 0.946
CCCCC1(COC(=O)CCC(=O)O)C(=O)N(c2ccccc2)N(c2ccccc2)C1=O [Suxibuzone],scaled lipid accumulation score,,inactive: ≤ 0
same,scaled lipid accumulation score,[1],inactive: ≤ 0
COc1cc(NC(C)CCCN)c2ncccc2c1 (stereo not drawn) [Primaquine diphosphate],scaled lipid accumulation score,,inactive: ≤ 0
same,scaled lipid accumulation score,library stock concentration: 4.4 mM,inactive: 0.035
same,scaled lipid accumulation score,[1],inactive: 0.025
COc1cc(NC(C)CCCN)c2ncccc2c1 (stereo not drawn) [Primaquine phosphate],scaled lipid accumulation score,library stock concentration: 7.7 mM,inactive: ≤ 0
COc1cc(NC(C)CCCN)c2ncccc2c1 (stereo not drawn) [Primaquine Diphosphate],scaled lipid accumulation score,[3],inactive: 0.027
same,scaled lipid accumulation score,[1],inactive: 0.152 and inactive: 0.501
